From the supplement of paper PMC4996465

How the values were obtained:
[1] = tested on: Nalm-6; test: viability (% of DMSO control); higher = more viable cells
Procedure: (§1)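 Eleven-dose screen of the NCATS MIPE 3 library on cells without co-treatment; CellTiter-Glo after 48 h, as % of DMSO wells.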

[2] = tested on: KB3-1; test: as above
Procedure: as §1

[3] = tested on: Nalm-6; test: log AC50 of viability decrease (48 h) (log10 M); higher = less potent
Procedure: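 Eleven-dose screen of the NCATS MIPE 3 library on cells without co-treatment; CellTiter-Glo after 48 h. AC50 from the curve fit; only inhibitory curves of the better fit classes are listed.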

| Compound | viability ([1]; run: 1, 0.00078 µM) | viability ([1]; run: 1, 0.00234 µM) | viability ([1]; run: 1, 0.00702 µM) | viability ([1]; run: 1, 0.0211 µM) | viability ([1]; run: 1, 0.0632 µM) | viability ([1]; run: 1, 0.19 µM) | viability ([1]; run: 1, 0.569 µM) | viability ([1]; run: 1, 1.71 µM) | viability ([1]; run: 1, 5.12 µM) | viability ([1]; run: 1, 15.4 µM) | viability ([1]; run: 1, 46.1 µM) | viability ([1]; run: 2, 0.00078 µM) | viability ([1]; run: 2, 0.00234 µM) | viability ([1]; run: 2, 0.00702 µM) | viability ([1]; run: 2, 0.0211 µM) | viability ([1]; run: 2, 0.0632 µM) | viability ([1]; run: 2, 0.19 µM) | viability ([1]; run: 2, 0.569 µM) | viability ([1]; run: 2, 1.71 µM) | viability ([1]; run: 2, 5.12 µM) | viability ([1]; run: 2, 15.4 µM) | viability ([1]; run: 2, 46.1 µM) | viability ([2]; 0.00078 µM) | viability ([2]; 0.00234 µM) | viability ([2]; 0.00702 µM) | viability ([2]; 0.0211 µM) | viability ([2]; 0.0632 µM) | viability ([2]; 0.19 µM) | viability ([2]; 0.569 µM) | viability ([2]; 1.71 µM) | viability ([2]; 5.12 µM) | viability ([2]; 15.4 µM) | viability ([2]; 46.1 µM) | log AC50 of viability decrease ([3]; run: 1) | log AC50 of viability decrease ([3]; run: 2) |
| --- | --- | --- | --- | --- | --- | --- | --- | --- | --- | --- | --- | --- | --- | --- | --- | --- | --- | --- | --- | --- | --- | --- | --- | --- | --- | --- | --- | --- | --- | --- | --- | --- | --- | --- | --- |
| Clc1ccc2ncc(-c3cccc(NC4CNC4)n3)n2c1 | 107% | 101% | 107% | 109% | 114% | 114% | 98.4% | 99.9% | 87.1% | 47.3% | 7.64% | 106% | 109% | 108% | 111% | 105% | 103% | 105% | 102% | 84.2% | 82% | 11.9% | 91.8% | 95.1% | 95.6% | 89.2% | 97.4% | 94.2% | 91.8% | 99.7% | 99.4% | 92.9% | 30.2% | -4.83 | -4.68 |
| O=C(O)c1ccc(O)c2ncc(N3CCOCC3)cc12 | 106% | 106% | 108% | 111% | 114% | 107% | 99.7% | 102% | 102% | 93.1% | 51.8% | 106% | 108% | 96.6% | 105% | 106% | 106% | 103% | 103% | 109% | 106% | 35.4% | 101% | 104% | 99.8% | 101% | 98.3% | 93.9% | 102% | 104% | 105% | 107% | 95.2% | -4.68 |  |
| O=S(=O)(/N=C/c1c(O)ccc2ccccc12)c1cccs1 | 117% | 113% | 117% | 115% | 112% | 108% | 116% | 101% | 104% | 105% | 49% | 103% | 104% | 105% | 103% | 103% | 103% | 101% | 97.8% | 101% | 68.5% | 35.6% | 103% | 105% | 105% | 111% | 103% | 106% | 100% | 108% | 104% | 104% | 92.6% |  | -4.78 |
| Cc1oncc1C(=O)Nc1ccc(C(F)(F)F)cc1 [Leflunomide] | 106% | 120% | 124% | 117% | 119% | 112% | 108% | 112% | 112% | 105% | 60.2% | 106% | 109% | 108% | 107% | 114% | 106% | 103% | 107% | 108% | 96.2% | 64.8% |  |  |  |  |  |  |  |  |  |  |  |  | -4.68 |
| Fc1cc(-c2cccc3ncc(-c4cnn(C5CCNCC5)c4)nc23)cc(F)c1CN1CCOCC1 [NVP-BSK805] | 117% | 110% | 112% | 110% | 98.7% | 104% | 107% | 93.6% | 104% | 71.9% | 0.505% | 104% | 99.8% | 101% | 103% | 101% | 99.6% | 100% | 101% | 94.5% | 82.9% | 1.12% |  |  |  |  |  |  |  |  |  |  |  | -4.68 | -4.63 |
| Cc1cn(-c2cc(NC(=O)c3ccc(C)c(Nc4nccc(-c5cccnc5)n4)c3)cc(C(F)(F)F)c2)cn1 [Nilotinib] | 112% | 107% | 115% | 106% | 101% | 100% | 109% | 87.1% | 77.9% | 53.1% | 7.59% | 105% | 102% | 104% | 110% | 111% | 107% | 107% | 105% | 78.1% | 62.4% | 16.1% |  |  |  |  |  |  |  |  |  |  |  | -4.73 | -4.83 |
| Cc1ccc(C(=O)Nc2ccc(CN3CCN(C)CC3)c(C(F)(F)F)c2)cc1C#Cc1cnc2cccnn12 [Ponatinib] | 108% | 119% | 120% | 113% | 106% | 101% | 91.9% | 64.5% | 44.3% | 17.9% | 0.698% | 107% | 105% | 107% | 109% | 106% | 96.7% | 80.8% | 45% | 5.65% | 4.03% | 1.52% |  |  |  |  |  |  |  |  |  |  |  | -5.38 | -5.88 |
| CC(C)OC(=O)/C1=C/N(CC(C)(C)C2=C1[NH]C3=CC=CC=C23)C(=O)C4=CC=C(F)C(=C4)F [Turofexorate isopropyl] | 113% | 123% | 129% | 135% | 122% | 125% | 118% | 118% | 113% | 114% | 91.4% | 108% | 107% | 106% | 105% | 102% | 102% | 104% | 55.7% | 39.5% | 0.0065% | -0.782% |  |  |  |  |  |  |  |  |  |  |  |  | -5.53 |
| CCC1(O)CC2CN(CCC3=C([NH]C4=CC=CC=C34)[C@@](C2)(C(=O)OC)C5=C(OC)C=C6N(C=O)[C@H]7[C@@](O)([C@H](OC(C)=O)[C@]8(CC)\C=C/CN9CC[C@]7([C@H]89)C6=C5)C(=O)OC)C1 (some centres undefined) [Vincristine sulfate] | 43.6% | 19.3% | 21% | 16.6% | 17.2% | 18.9% | 16% | 15.2% | 9.77% | 8.85% | 3.23% | 75.2% | 22.3% | 14.9% | 12.1% | 13.4% | 9.82% | 8.99% | 6.78% | 5.85% | 5.87% | 2.29% |  |  |  |  |  |  |  |  |  |  |  |  | -8.78 |

Counter-ions that a name gives are not always drawn. Viability of KB3-1 and Nalm-6 cells after 48 h of drug alone (CellTiter-Glo), 11 doses over about 4.5 log units. % of DMSO wells, lower = more cell loss; AC50 from the fitted curve, lower = more potent. No active / inactive call. Nalm-6 was screened in two runs. AC50 is listed only for well-fitted inhibitory curves. KB3-1 is a HeLa-derived carcinoma line, Nalm-6 a B-cell precursor leukaemia line.
